Data on 29 compounds can be found in patent US9763922B2 (priority 2014, dated 2017).

In this test the test system is MYC. As to the kind of experiment: cells. The note with it: Homo sapiens, MV4-11, 4 h, read-out: Myc IC50 (μM).

By IC50 is commonly meant the concentration that inhibits the measured activity by half. For the compound `CC(=O)N1CCc2c(c(N3C[C@H](C)N(C)c4cc(-c5cnn(C)c5)c(C(F)(F)F)cc43)nn2C2CCOCC2)C1` [Example 273, (S)-1-[3-[3,4-dimethyl-6-(1-methylpyrazol-4-yl)-7-(trifluoromethyl)-2,3-dihydroquinoxalin-1-yl]-1-tetrahydropyran-4-yl-6,7-dihydro-4H-pyrazolo[4,3-c]pyridin-5-yl]ethanone], the IC50 was determined as 0.027 µM.
Consider `CNC(=O)N1CCc2c(c(N3CCOc4cc(-c5cnn(C)c5)c(C#N)cc43)nn2C2CCOCC2)C1` [Example 275, 3-[6-cyano-7-(1-methylpyrazol-4-yl)-2,3-dihydro-1,4-benzoxazin-4-yl]-N-methyl-1-tetrahydropyran-4-yl-6,7-dihydro-4H-pyrazolo[4,3-c]pyridine-5-carboxamide], for which the IC50 came to 0.046 µM.
For the compound `CNC(=O)N1CCc2c(c(N3CCOc4cc(-c5cnn(C)c5)c(C(F)(F)F)cc43)nn2C2CCOCC2)C1` [Example 276, N-methyl-3-[7-(1-methylpyrazol-4-yl)-6-(trifluoromethyl)-2,3-dihydro-1,4-benzoxazin-4-yl]-1-tetrahydropyran-4-yl-6,7-dihydro-4H-pyrazolo[4,3-c]pyridine-5-carboxamide], the IC50 is 0.013 µM.
Take `CC(=O)N1CCc2c(c(N3CCOc4cc(-c5cnn(C)c5)c(C(F)(F)F)cc43)nn2C2CCOCC2)C1` [Example 277, 1-[3-[7-(1-methylpyrazol-4-yl)-6-(trifluoromethyl)-2,3-dihydro-1,4-benzoxazin-4-yl]-1-tetrahydropyran-4-yl-6,7-dihydro-4H-pyrazolo[4,3-c]pyridin-5-yl]ethanone]: the IC50 is 0.021 µM.
The result for `CC(=O)N1CCc2c(c(Nc3ccc(-c4cnn(C)c4)cc3F)nn2C2(C)CCOC2)C1` (centres unmarked) [Example 277, 1-[3-[7-(1-methylpyrazol-4-yl)-6-(trifluoromethyl)-2,3-dihydro-1,4-benzoxazin-4-yl]-1-tetrahydropyran-4-yl-6,7-dihydro-4H-pyrazolo[4,3-c]pyridin-5-yl]ethanone] reads 0.08 µM.
The value for `CC(=O)N1CCc2c(c(N3CCOc4cc(-c5cnn(C)c5)c(C(F)F)cc43)nn2C2CCOCC2)C1` [Example 278, 1-[3-[2,3-difluoro-4-(1-methylpyrazol-4-yl)anilino]-1-tetrahydrofuran-3-yl-6,7-dihydro-4H-pyrazolo[4,3-c]pyridin-5-yl]ethanone] was 0.029 µM.
Consider `CC(=O)N1CCc2c(c(Nc3ccc(-c4cnn(C)c4)c(F)c3F)nn2C2CCOC2)C1` (centres unmarked) [Example 278, 1-[3-[2,3-difluoro-4-(1-methylpyrazol-4-yl)anilino]-1-tetrahydrofuran-3-yl-6,7-dihydro-4H-pyrazolo[4,3-c]pyridin-5-yl]ethanone], for which the 50% inhibitory concentration (IC50) is 0.37 µM.
The result for `CNC(=O)N1CCc2c(c(N3CCCc4cc(-c5cnn(C)c5)ncc43)nn2C2CCOCC2)C1` [Example 279, 1-[3-[2,6-difluoro-3-(1-methylpyrazol-4-yl)anilino]-1-tetrahydrofuran-3-yl-6,7-dihydro-4H-pyrazolo[4,3-c]pyridin-5-yl]ethanone] reads 0.104 µM; that for `CNC(=O)c1ccc(-c2cc3c(cn2)N(c2nn(C4CCOCC4)c4c2CN(C(C)=O)CC4)CCC3)cn1` [Example 280, (S)-1-[3-[2,6-difluoro-3-(1-methylpyrazol-4-yl)anilino]-1-tetrahydrofuran-3-yl-6,7-dihydro-4H-pyrazolo[4,3-c]pyridin-5-yl]ethanone], 0.057 µM; that for `CC(=O)N1CCc2c(c(N3CCCc4cc(-c5cccnc5)c(C#N)cc43)nn2C2CCOCC2)C1` [Example 281, (R)-1-[3-[2,6-difluoro-3-(1-methylpyrazol-4-yl)anilino]-1-tetrahydrofuran-3-yl-6,7-dihydro-4H-pyrazolo[4,3-c]pyridin-5-yl]ethanone], 0.062 µM.
The value for `CC(=O)N1CCc2c(c(Nc3ccc(-c4cnn(C)c4C)cc3F)nn2C2CCOC2)C1` (centres unmarked) [Example 283, 1-[3-[4-(1,5-dimethylpyrazol-4-yl]-2-fluoro-anilino]-1-tetrahydrofuran-3-yl-6,7-dihydro-4H-pyrazolo[4,3-c]pyridin-5-yl]ethanone] was 0.078 µM; that for `CC(=O)N1CCc2c(c(Nc3ccc(-c4cnn(C)c4C)cc3F)nn2[C@H]2CCOC2)C1` [Example 284, (S)-1-[3-[4-(1,5-dimethylpyrazol-4-yl)-2-fluoro-anilino]-1-tetrahydrofuran-3-yl-6,7-dihydro-4H-pyrazolo[4,3-c]pyridin-5-yl]ethanone] was 0.36 µM; that for `CC(=O)N1CCc2c(c(Nc3ccc(-c4cnn(C)c4C)cc3F)nn2[C@@H]2CCOC2)C1` [Example 285, (R)-1-[3-[4-(1,5-dimethylpyrazol-4-yl)-2-fluoro-anilino]-1-tetrahydrofuran-3-yl-6,7-dihydro-4H-pyrazolo[4,3-c]pyridin-5-yl]ethanone] was 0.58 µM.
The result for `CNC(=O)N1CCc2c(c(N3CCCc4cc(-c5ccc(C)nc5)c(C#N)cc43)nn2C2CCOCC2)C1` [Example 288, 1-[3-[4-fluoro-3-(1-methylpyrazol-4-yl)anilino]-1-tetrahydrofuran-3-yl-6,7-dihydro-4H-pyrazolo[4,3-c]pyridin-5-yl]ethanone] reads 0.025 µM; that for `CC(=O)N1CCc2c(c(Nc3ccc(-c4cnn(C)c4)cc3Cl)nn2C2CCOC2)C1` (centres unmarked) [Example 293, 1-[3-[2-chloro-4-(1-methylpyrazol-4-yl)anilino]-1-tetrahydrofuran-3-yl-6,7-dihydro-4H-pyrazolo[4,3-c]pyridin-5-yl]ethanone], 0.35 µM.
As to `CC(=O)N1CCc2c(c(Nc3ccc(-c4cnn(C)c4)cc3F)nn2[C@@H]2CCOC2)C1` [Example 299, 1-[3-[2-fluoro-4-(1-methylpyrazol-4-yl)anilino]-1-[(3R)-tetrahydrofuran-3-yl]-6,7-dihydro-4H-pyrazolo[4,3-c]pyridin-5-yl]ethanone], the half-inhibitory concentration (IC50) was 0.77 µM.
The result for `CC(=O)N1CCc2c(c(Nc3ccc(-c4cnn(C)c4)cc3F)nn2[C@H]2CCOC2)C1` [Example 300, 1-[3-[2-fluoro-4-(1-methylpyrazol-4-yl)anilino]-1-[(3S)-tetrahydrofuran-3-yl]-6,7-dihydro-4H-pyrazolo[4,3-c]pyridin-5-yl]ethanone] reads 1.2 µM; that for `CNC(=O)N1CCc2c(c(N3CCCc4cc(-c5ccccn5)c(C#N)cc43)nn2C2CCOCC2)C1` [Example 300, 1-[3-[2-fluoro-4-(1-methylpyrazol-4-yl)anilino]-1-[(3S)-tetrahydrofuran-3-yl]-6,7-dihydro-4H-pyrazolo[4,3-c]pyridin-5-yl]ethanone], 0.053 µM.
With `CC(=O)N1CCc2c(c(Nc3ccc(-c4cn(C)nc4C(F)F)cc3F)nn2C2CCOC2)C1` (centres unmarked) [Example 305, 1-[3-[4-[3-(difluoromethyl)-1-methyl-pyrazol-4-yl]-2-fluoro-anilino]-1-tetrahydrofuran-3-yl-6,7-dihydro-4H-pyrazolo[4,3-c]pyridin-5-yl]ethanone], the IC50 came out at 0.093 µM.
The value for `CC(=O)N1CCc2c(c(Nc3ccc(-c4cn(C)nc4C(F)F)cc3F)nn2[C@H]2CCOC2)C1` [Example 306, (S)-1-[3-[4-[3-(difluoromethyl)-1-methyl-pyrazol-4-yl]-2-fluoro-anilino]-1-tetrahydrofuran-3-yl-6,7-dihydro-4H-pyrazolo[4,3-c]pyridin-5-yl]ethanone] was 0.21 µM; that for `CC(=O)N1CCc2c(c(Nc3ccc(-c4cn(C)nc4C(F)F)cc3F)nn2[C@@H]2CCOC2)C1` [Example 307, (R)-1-[3-[4-[3-(difluoromethyl)-1-methyl-pyrazol-4-yl]-2-fluoro-anilino]-1-tetrahydrofuran-3-yl-6,7-dihydro-4H-pyrazolo[4,3-c]pyridin-5-yl]ethanone] was 0.54 µM; that for `CNC(=O)N1CCc2c(c(N3CCCc4cc(-c5ccncn5)c(C#N)cc43)nn2C2CCOCC2)C1` [Example 309, 1-[3-[4-(1,3-dimethylpyrazol-4-yl)-2-fluoro-anilino]-1-tetrahydrofuran-3-yl-6,7-dihydro-4H-pyrazolo[4,3-c]pyridin-5-yl]ethanone] was 0.063 µM.
The value for `CC(=O)Nc1ccc(-c2cc3c(cc2C(F)F)N(c2nn(C4CCOCC4)c4c2CN(C(C)=O)CC4)CCC3)cn1` [Example 310, 1-[3-[2-fluoro-4-[3-(trifluoromethyl)-1H-pyrazol-4-yl]anilino]-1-tetrahydrofuran-3-yl-6,7-dihydro-4H-pyrazolo[4,3-c]pyridin-5-yl]ethanone] was 0.004 µM.
The result for `CNc1ccc(-c2cc3c(cc2C(F)F)N(c2nn(C4CCOCC4)c4c2CN(C(C)=O)CC4)CCC3)cn1` [Example 311] reads 0.019 µM.
On to `CC(=O)N1CCc2c(c(N3CCCc4cc(-c5ccc(N(C)C)nc5)c(C(F)F)cc43)nn2C2CCOCC2)C1` [Example 312], for which the IC50 was found to be 0.017 µM.
The result for `CC(=O)N1CCc2c(c(N3CCCc4cc(-c5cncc(Cl)c5)c(C(F)F)cc43)nn2C2CCOCC2)C1` [Example 314, 1-[3-[6-(5-chloro-3-pyridyl)-7-(difluoromethyl)-3,4-dihydro-2H-quinolin-1-yl]-1-tetrahydropyran-4-yl-6,7-dihydro-4H-pyrazolo[4,3-c]pyridin-5-yl]ethanone] reads 0.059 µM.
The result for `CC(=O)N1CCc2c(c(N3CCCc4cc(-c5ccncc5Cl)c(C(F)F)cc43)nn2C2CCOCC2)C1` [Example 315, 1-[3-[6-(3-chloro-4-pyridyl)-7-(difluoromethyl)-3,4-dihydro-2H-quinolin-1-yl]-1-tetrahydropyran-4-yl-6,7-dihydro-4H-pyrazolo[4,3-c]pyridin-5-yl]ethanone] reads 0.022 µM.
The result for `CC(=O)N1CCc2c(c(N3CCCc4cc(-c5ccnc(C#N)c5)c(C(F)F)cc43)nn2C2CCOCC2)C1` [Example 316, 4-[1-(5-acetyl-1-tetrahydropyran-4-yl-6,7-dihydro-4H-pyrazolo[4,3-c]pyridin-3-yl)-7-(difluoromethyl)-3,4-dihydro-2H-quinolin-6-yl]pyridine-2-carbonitrile] reads 0.034 µM; that for `CNC(=O)N1CCc2c(c(N3CCCc4cc(-c5ccn(C)c(=O)c5)c(C(F)F)cc43)nn2C2CCOCC2)C1` [Example 318, 3-[7-(difluoromethyl)-6-(1-methyl-2-oxo-4-pyridyl)-3,4-dihydro-2H-quinolin-1-yl]-N-methyl-1-tetrahydropyran-4-yl-6,7-dihydro-4H-pyrazolo[4,3-c]pyridine-5-carboxamide], 0.005 µM.
